{
  "source": "patent US20240400722A1",
  "about": "(MILTENYI BIOTEC B V, published 2024)",
  "binders": {"B1": {"name": "acVHH-WT displayed on yeast (Aga2p-HA-tag-(Gly4Ser)3 linker-acVHH-WT-c-myc tag) (VHH)", "chain": "[about 60 residues not given here]KDNSSTIEGRYPYDVPDYALQASGGGGSGGGGSGGGGSASQVQLVESGGGLVQAGGSLRLSCTASGRTGTIYSMAWFRQAPGKEREFLATVGWSSGITYYMDSVKGRFTISRDKGKNTVYLQMDSLKPEDTAVYYCTATRAYSVGYDYWGQGTQVTVSSGSEQKLISEEDL", "notes": "Yeast surface display fusion on S. cerevisiae EBY100"}},
  "biological_target": "T1, His tag-acVHH-WT anti-caffeine nanobody, soluble",
  "T1 construct": "Expressed in E. coli; also called AB0; not shown: His tag",
  "assay": "yeast surface display; 400 nM soluble partner, rising caffeine",
  "data": [
    {"binder": "B1", "values": [
      {"measurement": "binding result", "result": "binds"}
    ]}
  ]
}
